This is one part of the list.

Experimental findings from the supplement of paper PMC11417369 are described below.

In the test the test system is PF3D7_0420300 AP2 domain 1 (GST-tagged). As to the kind of experiment: gcPBM binding intensity (ln(normalized median fluorescence intensity)); higher = stronger DNA binding. In a few lines:
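After 1 h on an Agilent 4 × 180k array of primer-extended double-stranded 36-bp intergenic genomic probes and negative controls, bound GST-tagged P. falciparum DNA-binding domains were detected with Alexa488 anti-GST antibody and scanned at 488 nm. The domains had been expressed in E. coli, and binding took place in 1× PBS with 1% milk, 0.2 mg/ml BSA, 0.5% salmon testes DNA and 0.03% Triton X-100. Binding intensity is the highest Masliner-normalised natural-log median intensity across replicate spots of either probe orientation.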
On to “TCGTAATAATATAAATGTACTTTATTAATTAAAAGA [XGTACX_site3416]”, for which the “gcPBM binding intensity (ln)” value came out at 8.86.
Consider “GTAGTCCAAAAAAAGCGTACACAGAAAAAAAAAAAA [XGTACX_site4273]”, for which the “gcPBM binding intensity (ln)” value worked out at 9.14.
As for “ACATTGCACCCGTGCACACATAGAAAAATAATTCTT [CACACA_site409]”, the “gcPBM binding intensity (ln)” value is 9.34.
Then ATAACAAAAATCCTTGTGCACTATTTTAATAGAGTC, with 9.33; and “TACATCTTACTACTTATAATATAATATAGTATGAAT [TGCATGCA_negctrl_site8]”, with 8.93; and “CATTATGATTAAATATGTACATATTATTATATAAAT [XGTACX_site2477]”, with 9.08.
The figure for “ATATATATATTATATGCACACTAATAAGACTATTTA [CACACA_site5880]” is 9.22; for “CATAAATACAGTAACACACACAAAAAAATATGAATA [CACACA_site6066]” it is 10.1.
The figure for “TGTTTTGTTATTTTTATTTATATAAATAAAGCTATA [GTGCAC_negctrl_site88]” is 9.17.
As to “ATATATATATTTTATTGTACAAAAAAAAAAAAAAAA [XGTACX_site6803]”, the “gcPBM binding intensity (ln)” value amounted to 8.74.
With “TTGTTATGCATTGGTTGTACATAAGTATAAGTAATT [XGTACX_site5401]”, the “gcPBM binding intensity (ln)” value stood at 9.15.
With “ATAGGATTCTCAAAGTGTACTTGTCTACTGTAGTTT [XGTACX_site4202]”, the “gcPBM binding intensity (ln)” value came to 9.31.
For the sequence TTTGTTTGTAAAATGTTGCACTTTCTTTTGCTGATA, the “gcPBM binding intensity (ln)” value came out at 9.28.
With “CCATTATACACAATATGTACATATATATAATCATTT [XGTACX_site7942]”, the “gcPBM binding intensity (ln)” value is 9.3.
On to “AAAAAAAAAATATGTACACACATATAAAATACATAA [CACACA_site6869]”, for which the “gcPBM binding intensity (ln)” value stood at 9.66.
The figure for “AATAATAAAATAAAAGTGCATTAATTATAATTCTTT [GTGCAC_site9491]” is 9.24; for “TCTTTCTAAATCTTACAAATTACTAAAATATTTATA [CACACA_negctrl_site87]” it is 8.88.
Then “AATTATAATAATAATAGTACATAAGTATATAAATAA [XGTACX_site2400]”, with 9.39; and “TTAAATATTTATATTTGTACACAATCAATCATACAC [XGTACX_site5793]”, with 9.29.
The figure for “GAGGAAAAAAAAAAAAGTACATTATATAAGAAAATT [XGTACX_site2610]” is 9.37; for “TTGGTTTCTTGTTTTTGTACCCATAATTTGTAATAT [XGTACX_site1248]” it is 9.64.
Consider “AAAAAAAAAAAAAAAAGTACAAATTTAAAAATGTGT [XGTACX_site112]”, for which the “gcPBM binding intensity (ln)” value came out at 9.15.
“TCTTTCTATTAAACATGTACTTGTCTAAAGACATAA [XGTACX_site8564]”: the “gcPBM binding intensity (ln)” value was determined as 8.81.
The figure for “CGAATAAATATATGTAGTACATGTTGTAGATAATTT [XGTACX_site1218]” is 9.46; for “TATATATATTTAAATTGTACATATATTATTCATATG [XGTACX_site911]” it is 9.15; for “AATAATATATATTACTGTACTAATATAAGGGACATC [XGTACX_site3744]” it is 9.53.
With “TTATTTTCTACAAATTGTACATATTTTTTACTACTC [XGTACX_site1394]”, the “gcPBM binding intensity (ln)” value came to 9.33.
The figure for “TTGTCAAAAATTACACACATAAATGAATAAATAAAT [XGTACX_negctrl_site541]” is 9.57; for “ATTTATGAAAAAAATACATGCATGTCCATATAAATT [TGCATGCA_site505]” it is 9.25; for “ACATATATATATATTACACACACACTAATAAAATAA [CACACA_site7920]” it is 10.1.
With “TTTCAAGAATTATATAAACACACATACATACACCCA [CACACA_site8592]”, the “gcPBM binding intensity (ln)” value came out at 9.65.
In the case of “AAATAATTCATATGTTGTACAGTAATTAAATTTTCT [XGTACX_site6343]”, the “gcPBM binding intensity (ln)” value was 9.08.
Then “ATAATTAATCCAAAATGTACTTACATTTTATATGAA [XGTACX_site8888]”, with 9.01; and “ATAAGGATCAGACACAAACACACATATATATATATA [CACACA_site558]”, with 9.63.
Then “TTTTTTTTTCTTTGCACACAGATAACTTGAAATTTG [CACACA_site2185]”, with 9.39.
The figure for “TTTTATAATTTATCTAAAAAAAAATAAAATAAAATG [TGCATGCA_negctrl_site429]” is 8.67; for “ATAAAATAAAATAAAAGTACATAAATATATATATAT [XGTACX_site6110]” it is 9.46; for “AATAAATAAATAAGTACACACATATAAATATAAATA [CACACA_site6271]” it is 9.66.
“TTCTACATGAAGTTATAAATTAATATTTTAATTTAT [XGTACX_negctrl_site134]”: the “gcPBM binding intensity (ln)” value is 8.72.
Then “TACTTTATTTTTTATACACACACAATATGTATATAT [CACACA_site9184]”, with 9.89; and “GTATTTCTTTAATATACACACACCAAAACAAAAAAA [CACACA_site579]”, with 9.75; and “ATATATATATATATATATATAATAAAAGATCATTTA [XGTACX_negctrl_site371]”, with 9.09.
Then “ATAATAAAAAGAAAAAGTACAAATGATTATGTTTGA [XGTACX_site3615]”, with 9.53; and “CAAGTATTATATTGCGCATGCAAAGAAGGACACAAA [TGCATGCA_site1024]”, with 9.41.
